Data taken from the BET-seq Pho4 binding data (Le et al. 2018).
The list shows a part of the results. These are noisy estimates, calculated here from bound and input reads.

biological target: T1, Pho4 (S. cerevisiae) (UniProt P07270); experiment: relative binding free energy (BET-seq); higher = weaker binding; conditions: reference: library average
T1 sequence: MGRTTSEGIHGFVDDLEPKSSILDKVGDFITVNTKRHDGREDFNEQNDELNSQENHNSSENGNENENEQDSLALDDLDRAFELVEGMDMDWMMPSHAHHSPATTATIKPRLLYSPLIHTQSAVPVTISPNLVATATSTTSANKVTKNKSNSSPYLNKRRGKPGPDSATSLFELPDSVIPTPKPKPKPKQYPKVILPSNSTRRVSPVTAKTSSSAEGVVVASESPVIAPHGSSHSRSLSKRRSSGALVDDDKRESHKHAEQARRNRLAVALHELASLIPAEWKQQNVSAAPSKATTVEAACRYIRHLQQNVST

Sequence	relative binding free energy [kcal/mol]
GATTTCACGTGTACGT	0.31
CCGGGCACGTGCTGGG	-0.26
GGCCGCACGTGGGTTG	-0.2
GAGTTCACGTGTCGAT	0.39
GGGTACACGTGGCTTT	-0.07
GGGCGCACGTGTGGGC	0.07
GATTACACGTGTTAGG	0.04
CGTTGCACGTGACGGG	0.1
GTTTCCACGTGCGTGT	0
AAATTCACGTGATGAG	0.39
CTCGTCACGTGGAGGG	-0.01
GGCTTCACGTGGGTGC	0.07
TCTCTCACGTGAGGGT	0.3
GGAGGCACGTGGAGAA	-0.06
AATGTCACGTGGGGCT	-0.04
GTGGGCACGTGTTCGG	-0.05
AGGATCACGTGGCTTT	0.08
TGGGTCACGTGATAAT	0
TCAAGCACGTGTGGGT	0.04
GCGGCCACGTGGTGGT	-0.09
AGTCTCACGTGTGAGT	0.16

Sequence	relative binding free energy [kcal/mol]
TTGGACACGTGTTAGT	0.12
TTAAGCACGTGGTACG	-0.22
AGCGCCACGTGAGTGT	0.04
TGGTACACGTGCTGGC	0.14
ATTTGCACGTGAGTGG	0.24
AGGGACACGTGGATTG	0.09
TACGGCACGTGGGCGT	-0.37
GATGCCACGTGGGAGG	-0.11
CTTAACACGTGTAGGG	0.06
GAGTTCACGTGTTGAA	0.28
ATTTGCACGTGTTGTT	-0.04
CAAGGCACGTGAGAGG	0.05
GGCGGCACGTGTGTTC	0.1
TCGTGCACGTGTCGTG	-0.06
GTGTGCACGTGATGCG	0
TGTATCACGTGGTATT	0.07
TGTACCACGTGTTTTT	-0.1
AGTATCACGTGCGGGA	0.12
AGTTCCACGTGAGGGA	0.35
GCCGTCACGTGTTGGT	0.08
AAAGTCACGTGGTGGC	0.2

Sequence	relative binding free energy [kcal/mol]
ACCTGCACGTGGGGTG	-0.11
GTGCACACGTGGTATT	-0.02
GGAAGCACGTGGTCGT	-0.16
AGCTACACGTGGAGGT	0.04
TTGTCCACGTGTCTTT	0.04
GGGGGCACGTGATGGG	0.05
TTGGGCACGTGTGGCT	0.03
CTTGTCACGTGTAATT	0.16
GTGAACACGTGGAGAG	-0.03
TGTTTCACGTGGGTGT	0.21
TAAGTCACGTGATGTA	0.24
TCCAGCACGTGTTGTT	0.07
ATCAGCACGTGTGGGT	0
AGGGACACGTGCGCTG	-0.03
TGTGCCACGTGGTTTA	-0.2
AAAGACACGTGTGAGT	0.16
TAGCTCACGTGTAGGT	0.18
GAGTTCACGTGAGCTT	0.36
TCGTGCACGTGGGTTG	-0.15
ATCGGCACGTGGCGGG	-0.06
TTCAACACGTGTTGTT	-0.04
